Hit rate of the full screen: of about 50,000 compounds, about 800 (1.6%) showed an effect of 50% or more. This is one part of the list.

The text below walks through data of PubChem BioAssay AID1240 (Sanford-Burnham Center for Chemical Genomics, 2008).

The target in the assay is Bcl-2-like protein 10 (Homo sapiens) (UniProt Q9HD36). Put plainly: Phenotype converters, Bcl-B/TR3 peptide binding displacement, primary biochemical FP (AID 1240).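 Further: 0% = Bcl-B with tracer peptide and DMSO and 100% = tracer peptide lacking Bcl-B.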 As to conditions: GST-Bcl-B / FITC-TR3 peptide fluorescence polarization; stronger effect = higher value; compound at 3.75 mg/L. In general terms: Fluorescence polarisation rises when a labelled molecule tumbles more slowly, as on binding a larger partner.
Sequence of UniProt Q9HD36 (Q9HD36 whole entry, looked up): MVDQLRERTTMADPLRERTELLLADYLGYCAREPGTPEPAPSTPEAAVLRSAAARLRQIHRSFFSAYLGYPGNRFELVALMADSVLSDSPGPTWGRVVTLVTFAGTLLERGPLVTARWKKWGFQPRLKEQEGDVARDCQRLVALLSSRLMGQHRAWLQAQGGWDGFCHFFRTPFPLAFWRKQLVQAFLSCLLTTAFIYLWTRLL
`CCOc1ccc(CC(C(=O)NC)C(=O)NC)cc1CN(C)C`: the displacement was -21%.
For the molecule `Cc1ccc(-c2nc3ncccc3o2)cc1NC(=O)c1ccc(Br)o1`, the displacement is -4.6%.
Next, `CCOc1ccc(NC(=O)c2ccccc2NC(=O)c2cccs2)cc1`: 1.9%.
On to `CCOC(=O)Nc1sc2c(c1C(N)=O)CCC(C)C2` (centres undefined), for which the displacement is -4.4%.
Regarding `O=C(COc1ccc2ccccc2c1)Nc1cccc2ccccc12`, the displacement was 0.2%.
As to `CCOc1cccc(C2CC(=O)Nc3c2cc(Br)c2ccccc32)c1` (centres undefined), the displacement was -7.4%.
For `COc1ccc(/C=C2/Sc3ccccc3C2=O)cc1`, the displacement is 14.5%.
In the case of `CS(=O)(=O)N(Cc1ccc(Cl)cc1)c1ccc(C(=O)N2CCN(c3ccccc3)CC2)cc1`, the displacement is -35.5%.
With `O=C(NCc1cccnc1)c1nn2c(c1Cl)NC(c1cccs1)CC2C(F)(F)F` (centres undefined), the displacement was -2.7%.
Next, `COc1ccc2oc(=O)c(C(=O)Nc3ccccc3C(=O)O)cc2c1`: 16.9%; `COc1ccc2c(c1)C(NC(=O)C(F)(F)F)CC2=O` (centres undefined): 13.2%; `O=C(NCCCc1ccccc1)c1cc2ccccc2oc1=O`: 3.1%.
Consider `Cc1cccc(NC(=O)C(=O)NCCc2ccc(Cl)cc2)c1`, for which the displacement came to 12.1%.
In the case of `CC(C)Oc1ccccc1NC(=O)c1cc(F)c(F)cc1Cl`, the displacement is -6.8%.
For the molecule `COc1ccc(-c2cc(C(=O)Nc3cccc(C(C)=O)c3)c3ccccc3n2)cc1OC`, the displacement was 4.1%.
On to `Cc1cccc(C)c1NC(=O)c1ccc(CN2CCc3ccccc3C2)cc1`, for which the displacement amounted to 11.7%.
Next, `CCOC(=O)N1CCN(c2ccc(C(=O)CC)cc2F)CC1`: -12.7%; `CC(C)Cn1cc(F)c(=O)n(CC(C)C)c1=O`: 9.8%; `O=C1CCCC2=C1C(c1ccc(Cl)cc1)Nc1ccccc1N2` (centres undefined): -5.7%.
Consider `O=C(Nc1ccc(O)cc1)Nc1ccc(Cl)cc1`, for which the displacement is -1.5%.
Next, `Cc1ccc2[nH]c(C)c(CN(C)Cc3ccccc3)c(=O)c2c1`: -15.8%; `O=C(Nc1ccc(Oc2ccccc2)cc1)c1ccc(Cl)cc1Cl`: -9.4%; `CC1=NN(C(=O)OC(C)(C)C)C(O)(c2ccc(C)cc2)C1` (centres undefined): 12.6%.
Next, `Cc1ccc(N2C(=O)c3ccccc3NC2c2ccccc2F)cc1` (centres undefined): 8%.
Next, `O=[N+]([O-])c1cccc(-c2noc(COc3ccc4ccccc4c3)n2)c1`: 2.7%.
`Cc1cc(C(=O)Nc2ccccc2C(=O)O)ccc1NC(=O)CC(C)C`: the displacement stood at 1.4%.
As for `CN(C)c1ccc(NC(=O)c2ccc(I)cc2)cc1`, the figure is 6.9%.
Turning to `N#CCCC1(CCC#N)c2ccccc2-c2ncccc21`, the displacement is -4.2%.
Regarding `O=C1/C(=C\c2cc(Cl)c(O)c(Cl)c2)SC(=S)N1Cc1ccccc1`, the displacement is -20.1%.
In the case of `NNC(=O)c1n[nH]c2c1CCCCCCCCCC2`, the displacement is -28.4%.
As for `N=c1sc(Cc2cccc(Cl)c2)cn1CC(=O)c1ccccc1`, the figure is -6.7%.
As for `O=C(N/N=C/c1ccc(Cl)cc1)c1cc(C2CC2)[nH]n1`, the figure is -3.3%; as for `CC1(C)CC(=O)C(Sc2ccc([N+](=O)[O-])cc2)=C(O)C1`, 17%.
Take `O=C(O)c1ccccc1/C=C1\SC(=S)N(c2cccc(C(F)(F)F)c2)C1=O`: the displacement was -12%.
Consider `COc1ccc(OC)c(N(CC(=O)NC(C)C)S(C)(=O)=O)c1`, for which the displacement was determined as 11.6%.
As for `Clc1ccc(Cc2noc(-c3cccs3)n2)cc1`, the figure is -15.6%; as for `CN(C(=O)C12CC3CC(CC(C3)C1)C2)C1CCS(=O)(=O)C1` (centres undefined), -9.7%; as for `COCCNC(=O)c1ccc([N+](=O)[O-])cc1Cl`, 1.6%.
Next, `C#CCOc1ccc(C=C2C(=O)NC(=S)NC2=O)cc1Br`: -17%; `O=C(NCc1ccc(Cl)cc1)C1CCCN1S(=O)(=O)c1ccc(Cl)cc1` (centres undefined): 0.5%.
Consider `COc1cc2c(c(OC)c1OC)c(=O)oc1cc(O)ccc12`, for which the displacement is 5%.
Next, `CC(c1ccccc1)N1C(=O)/C(=C/c2cccc([N+](=O)[O-])c2)SC1=S` (centres undefined): -9%; `OC(c1ccccc1)(c1ccccc1)c1ccnn1-c1ccccc1`: 2.6%; `Cc1occc1C(=O)Nc1ccccc1Cl`: 5%.
In the case of `CC(=O)c1cccc(NC(=O)/C=C/c2ccccc2Cl)c1`, the displacement came out at 13.7%.
As for `Cc1c(C#N)c(N)c(C(=O)c2ccccc2)n1-c1ccccc1`, the figure is 9.8%.
Next, `COc1ccc(CC(=O)Nc2cccc(F)c2)cc1OC`: 3.9%; `CN(C)c1ccc(NC(=O)c2cccnc2)cc1`: 3.5%; `CCC(=O)Nc1ccccc1C(=O)N1CCN(Cc2ccccc2)CC1`: 1.9%.
For `CC1=C(C(=O)OCCc2ccccc2)C(c2ccc(Br)cc2)C2=C(CCCC2=O)N1` (centres undefined), the displacement is -10.6%.
As for `O=C(Nc1ccc(Cl)cc1)Nc1nnc(C23CC4CC(CC(C4)C2)C3)s1`, the figure is 6.7%.
For `Cc1cc(C)n(CC(=O)n2nc(C)cc2C)n1`, the displacement is 2.6%.
Turning to `O=C(COc1ccc2ccc(=O)oc2c1)c1ccc(Cl)cc1`, the displacement worked out at 6.8%.
On to `CC(=O)Nc1ccc(NC(=O)CN2C(=O)c3ccccc3C2=O)cc1`, for which the displacement is -1.5%.
As for `COc1cccc(NC(=O)CN(c2ccc(C)c(Cl)c2)S(C)(=O)=O)c1`, the figure is 3.3%; as for `COc1cccc(CN2CCN(C(=O)C(c3ccccc3)c3ccccc3)CC2)c1`, -8.9%; as for `CCc1cc(=O)oc2cc(C)cc(OC(C)=O)c12`, 11.4%.
Next, `O=C(c1ccccc1F)N1CCN(CCCc2ccccc2)CC1`: -24.8%.
For `COc1ccc(C)cc1CCC(=O)O`, the displacement was 7.4%.
With `O=C(N/N=C/c1ccc(Sc2nnnn2-c2ccccc2)o1)c1ccccc1O`, the displacement is -7.9%.
Next, `O=C(Nc1ccc(NC(=O)c2ccc(Cl)cc2Cl)cc1)c1ccccc1`: 1.2%.
As for `O=C(COc1ccc2ccccc2c1)N1CCCC1`, the figure is -10.1%; as for `CCOc1ccc(C(=O)Nc2cccc(OC)c2)cc1Br`, 5.7%.
Next, `COc1cc(C2Nc3ccc(C(=O)c4ccccc4)cc3NC3=C2C(=O)CCC3)cc(OC)c1OC` (centres undefined): -10.6%; `COC(=O)CNC(c1ccccc1)c1cc(Br)ccc1NS(=O)(=O)c1ccccc1` (centres undefined): 0.4%; `N#C/C(=C/c1ccc(O)cc1)C(=O)Nc1cccc(Br)c1`: -32.7%.
Take `Cc1ccc(SCCOc2ccc(/C=C3/SC(=S)N(C)C3=O)cc2)cc1`: the displacement came to 16.5%.
Consider `CC(C)(C)c1ccc(OCC(=O)NC(=S)Nc2ccc(NC(=O)c3ccco3)cc2)cc1`, for which the displacement is -6.4%.
Regarding `O=C(c1cc2ccccc2oc1=O)N1CCN(c2ccccc2)CC1`, the displacement turned out to be 4.4%.
Consider `CSc1nc2sc3c(c2c(=O)[nH]1)CCCC3`, for which the displacement came to 6.2%.
Take `C/C(=C\C(=O)c1ccc(Cl)cc1)Nc1ccc(Br)c(C)c1`: the displacement stood at 4.4%.
Take `COc1ccc(OCC(=O)NCCNC(=O)COc2ccc(OC)cc2)cc1`: the displacement turned out to be 4.5%.
As for `COc1cc(NC(=O)c2cc(Cl)ccc2OC)c(OC)cc1Cl`, the figure is -1.9%.
`Cc1occc1C(=O)Nc1cccc(O)c1`: the displacement turned out to be 2.5%.
